In the supplement of paper PMC10126150:
Values marked as one replicate rest on one cluster of the flow cell; about a third of the high ones do not repeat.

System: ATP
Test: switch fluorescence ratio, 500 uM ATP over buffer (Cy3 cluster intensity, sum of 5 cycles each) (fold (ratio)); higher = stronger signal-on switching upon ATP binding; sequences stand for … in TCGTCGGCAGCGTCAGATGTGTATAAGAGACAGTTTTTTTTTTTTTTTTTTTTTTTTT…TC
Details: aptamer strand: ATP DNA aptamer (quencher-CACCTGGGGGAGTATTGCGGAGGAAGG + anchor), 100 nM annealed; ATP concentration: 500 uM; one replicate
How it was run: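 The fluorescence ratio divides summed target-cycle Cy3 intensity by summed buffer-cycle Cy3 intensity for each cluster and is averaged per switch-domain sequence. Cy3-labelled switching-strand clusters on a modified Illumina MiSeq flow-cell were annealed to 100 nM quencher-labelled ATP aptamer, then imaged in selection buffer and again after 15 min with 500 uM ATP at 22 °C. Five such cycles were run, with NaOH stripping and re-annealing between them, and clusters outside 100-1000 RFU were excluded.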
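Also: ATP exposure 15 min at 22 °C before imaging.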

Sequence	switch fluorescence ratio
CGCCGGGCTG	0.996
TATGCTCCGC	1.42
GATCGTTCAT	0.998
AATTTAGGCT	0.966
GATGGAAATG	1.03
TGACTAAGAT	1
CAGTTAAATT	1.01
TCCCCCGGGG	1.78
GGGTTGAGG	1.02
AAGGCAGACA	1.03
TACGGTGATT	1.04
GGCTACGATG	1.01
TTGCGATCTG	1.03
CTTCGGGGTA	0.994
CGAACGTA	1.05
CTTGGTTATA	1
ACGTTCCTTC	1.47
CCCACAATTT	1.24
GCTGCGGTTA	1.03
GAACTATTT	1.05
CAGGTCGTGC	0.985
GCTGGACGGC	0.968
CGCGCACAGG	2.49

Sequence	switch fluorescence ratio
GCAACTCTGT	1.03
TCGTTTCAGG	0.991
ACAGTCATCG	1.04
TTAACGCT	1.04
TAAGAAATTC	1
TGGGGCAACT	1.02
ACTGTATACT	1.19
GGTATAGTTT	0.953
GATCAGCAAC	1.98
GACGAAAAAA	1.04
CACAAGTGG	0.98
CGGTTTGCT	1.01
TCAGTCTTCC	1.53
GGCCTAATTT	1.04
GAGTGAAGCT	1.09
TTTAACGCTA	1.23
AAGCTAATGC	1.35
TCGCCCAAGT	1.03
GATGTTTACG	0.942
ATCACCCCGG	1.18
TGAATGACGC	1.12
TGCTGTGGGT	1.03
TAAGTCGCCG	0.987

Sequence	switch fluorescence ratio
AAGCAAGCGG	1.04
TTCACCTTAA	1.07
TAACTGTCTG	0.985
AAAGAGCTTT	0.95
TAGCCAGGTT	1.1
CCATGGATGC	1.06
CACCAAGCAT	1.19
CACATAGTCG	1.02
AGGTAAGCGT	1.05
CGTAAGAAGC	1.03
CCTTTGCCGG	1.03
GTGAGAACG	1.04
TGAACCTG	0.988
ATACGATCG	1.03
AACAGTATAA	1.08
CGTTGCATCA	1.01
AGGCGCGATA	1.18
AGGGGAAGCG	0.973
TTTAAGGTCT	1.02
CCGGAGGACC	1.16
TCGTTGAAAC	0.961
TTGACCCCGG	0.994
TAAGGGGCAC	0.987

Sequence	switch fluorescence ratio
GGATGGTAGA	1
GCCTGATACT	1.04
AATGCGGATT	0.996
GTAGGATGGT	1
CAAGTAAAAC	1.06
GTCTTCAACC	0.967
AATATATGAC	1.04
CGTTAACCGG	0.994
TTAACACGGG	0.999
ATTACAAGGG	0.958
GTTCTTTGTC	0.984
TTGTGCGGTT	0.995
AGATTAGTAA	1.08
ATCATTTG	0.977
TATGGTAAAA	1.01
ACGATCTGCT	1.04
ACTTCGCCTG	1.1
TAAATCTAGG	0.991
TTAACTAATG	1.08
GGTGCAAGAA	1.19
TAGAGCTTTA	0.995
TTTTCGCGCC	1.1
CAAATCCCAT	0.995

Sequence	switch fluorescence ratio
TAAGCGAATC	1.11
GTTGGAAAAG	1.01
TCCCGAAGCG	1.85
AGGTATGAGC	0.971
AAACAGACGG	1.13
AAGGGTGTGC	0.922
TTGCTCGGTC	1.02
TTCCAGCTAA	1.07
GGCGGGCAAT	1.08
CCCCAAAGTT	0.957
GTTATGGTGC	1.03
TTATTGGT	1.03
ACCGCAAAGC	2.06
CTTTTCGTGG	0.966
GGCCGGTTAG	0.984
ATAGACTTGA	1.01
GGGGAGCTAG	0.942
TTCGTTTTCC	1.15
GTCTTCATGA	0.99
GTGTGACGGG	1
AAAGAGCTGG	1.01
CATGACTTAG	1.04
GCAGTGTCTT	1.02

Sequence	switch fluorescence ratio
TGTATGATAG	1
GGGGATAGTC	1.01
TGGATGAAAG	0.98
CTATACCTCG	1.02
GTTAATAAGT	1.04
ATGTACATAT	1.03
TAATAACTAT	1
GGTAGCAATC	5.64
CGTCAAAACA	1.03
AATGTCCGAA	1
GTCCCGGACC	1.03
CCACTTTCAC	1.16
TATCCACGTA	1.17
AATTTGAGTA	0.962
ATCGACGCCT	1.05
CCGAGAAAAC	2.36
CGGACTCTT	1
TGCCGGTATG	0.96
ACCAAGAAGT	1.08
CGCGCAGGGC	2.05
TGTAATGGGC	0.991
CATTGTAACA	1.02
AGATACCGTT	1.02

Sequence	switch fluorescence ratio
CGAGGCGGGA	1.1
TCTCATAAAG	1.02
ACATGCTCCA	0.992
GCGGAATATC	3.47
AGACTCACGT	1.41
GCCATATAG	1.03
CAGTTGGCCC	1.01
TTATGAACGT	0.929
TTCAGATTGA	0.995
TTTTACCCTG	1.01
TGTCGACACA	0.959
CCGTTTTTTT	0.958
GAAAAGTGGG	0.973
TACTCTGTCG	1.13
GGAGCTCCGG	1.03
CGACATTGCT	0.975
CTTAGGAAGG	1.03
CGCCGCCGGT	1.07
GTGATGGGAG	1.02
